Assay results: a collection of fitness landscapes (doi:10.1016/j.celrep.2020.107928)
The full ranking holds about 81,000 sequences; the median of “one-hybrid fitness for binding NBS DNA” is about -0.1, and the highest 2% start at about 0.36. The list shows a part of the results.

B1: Caulobacter ParB omega fusion; a variant is named by its letters at X, in order, B8GW30 (parent)
chain: MESVVVGEPGMSEGRRGLGRGLSALLGEVDAAPAQAPGEQLGGSREAPIEILQRNPDQPRRTFREEDLEDLSNSIREKGVLQPILVRPSPDTAGEYQIVAGERAWRAAQRAGLKTVPIMVRELDDLAVLEIGIIENVQRADLNVLEEALSYKVLMEKFERTQENIAQTIGKSXSHVANXMRLLXLPDEVQSYLVSGELTAXHARAIAAAADPVALAKQIIEGGLSVRETEALARKAPNLSAGKSKGGRPPRVKDTDTQALESDLSSVLGLDVSIDHRGSTGTLTITYATLEQLDDLCNRLTRGI

Variants of: B1
Assay: one-hybrid fitness for binding NBS DNA (the Noc-binding site; scaled: cognate 1, non-cognate 0); higher = stronger binding
Conditions: with NBS DNA site
Summary of the method: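 Caulobacter ParB libraries with four specificity codons randomised were screened by bacterial one-hybrid selection in the E. coli USO strain, using a HIS3 reporter whose site lies 19 bp from the promoter. Selection ran for 48 hours at 37°C on M9 lacking histidine, with 0.1 mM IPTG and 5 mM 3-AT. Plasmids were Illumina-sequenced before and after selection, three replicate libraries were pooled, and variants with under 10 reads were dropped. Fitness is the log change in each variant's read ratio to wild type, rescaled against the cognate and non-cognate sites.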

one-hybrid fitness for binding NBS DNA, 0.507:
RANR

one-hybrid fitness for binding NBS DNA, 0.3:
TRMR

one-hybrid fitness for binding NBS DNA, 0.328:
LRKT

one-hybrid fitness for binding NBS DNA, 0.216:
KCRS

one-hybrid fitness for binding NBS DNA, 0.227:
KTAR

one-hybrid fitness for binding NBS DNA, 0.212:
MYKR

one-hybrid fitness for binding NBS DNA, 0.491:
QQFR

one-hybrid fitness for binding NBS DNA, ≤ 0.2:
YTNH
RMPT
APIN
RKIL
WPTR
TLEQ
SAAY
NSGT
HWPK
VNWT
AAYD
FRAG
KKSF
TRNQ
KQIS
GPWT
VERQ
QFLF
RSTA
RIWF
HSIY
TDCF
VPAP
TTPI
HAVY
ICHS
VVMV
YVCS
GNMW
RFMN
PVKV
TVER
SSKI
RQFP
TQFG
YTSY
PSLF
TMQL
IVNY
LYET
ITGR
TMYY
RIQE
PFKY
YTCG
ALSQ
TFAM
FANF
RSPE
NVEC
AARY
MYTY
DVGG
GVAT
QSDV
VDYY
AALD
PKRW
YMLR
GLHV
RIRW
LNQR
CYLT
PCGG
HPHH
QHFS
PTNW
RQNK
HFET
PLKK
HYKN
TGMW
HYYV
TLLE
HQIG
TEKC
LKES
QPVE
TLFT
SGYY
PYKY
RHRI
RVFC
MHQC
NYFD
DWES
YAHF
KPSP
QERD
KEVF

one-hybrid fitness for binding NBS DNA, 0.352:
EFLC
